Out of some 71,000 compounds screened, about 1,800 (2.5%) were called active. The inconclusive results got no clear call from the source; some entries with a clear call stand among them for comparison. Calls follow the shape of the dose curve; as a rule, active = well fitted activation curve with a large enough effect in the signal ratio, with a control signal flat (not every such curve was filed as active); inconclusive = small, poorly fitted or top-dose-only effect, or effect the other way, or a change in a side signal; inactive = flat fitted curve, though single readings scatter; the % refers to the signal ratio. Where the call is inconclusive, the potency comes from a doubtful curve fit.
Assay: Cell signaling CRE-BLA (Fsk stim); as to activity change, negative = inhibition: % of control where 0% means no effect
Conditions: CHO CRE-bla reporter (cAMP response element driving beta-lactamase), forskolin EC10, beta-lactamase ratio; activity change, negative = inhibition: at 38.2 µM (top of the series) unless noted
Method in brief: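 The 460nm/530nm emission ratio after CCF4 loading defined %Activity, from which AC50 values were obtained. CRE-bla CHO cells received compound dilution series together with an EC10 level of NKH 477 for 3 hours at 37 degrees Celsius.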
With `Clc1ccc(Cn2cc(/C=N/n3cnnc3)c3ccccc32)cc1` the activity change, negative = inhibition was inconclusive: 33.5%.
For `Cc1ccc(N(CC(=O)N2CC(=O)Nc3ccccc32)S(=O)(=O)c2ccc3c(c2)OCCO3)cc1`, the Potency was inconclusive: 3.16 µM [falling, single point].
For `CC12/C(=N/O)C3C4CC5C3/C(=N/O)C1C5C42` (stereo not given), the activity change, negative = inhibition was inconclusive: 15.4%.
With `CCNc1ncc2nc(-c3cccs3)c(=O)n(C[C@H]3CCCO3)c2n1` the Potency was inconclusive: 2 µM [rising, full curve].
In the case of `CCOC(=O)c1ccc(N2C(=O)C(O)=C(C(C)=O)C2c2ccc(O)c(OC)c2)cc1` (stereo not given), the activity change, negative = inhibition is reported as inconclusive: -9.61%.
For `COc1ccc2[nH]c(O)c(NC(C)=O)c2c1`, the Potency was active: 0.398 µM.
For `O=C1CC(c2ccco2)CC(O)=C1C=NCCO` (stereo not given), the “activity change, negative = inhibition” value was inactive: -2.42%.
With `Cc1cccc(N2CCN(C(=O)C3CCN(S(=O)(=O)c4cccc5cccnc45)CC3)CC2C)c1` (stereo not given) the Potency was inconclusive: 12.6 µM [falling, single point].
In the case of `CCn1c(NCc2ccco2)nc2c1c(=O)n(C)c(=O)n2C`, the Potency is reported as inconclusive: 10 µM [rising, partial curve].
In the case of `O=C(NCC1CCCO1)c1ccc2c(=O)n(CCc3ccccc3)c(=O)[nH]c2c1` (stereo not given), the “activity change, negative = inhibition” value is reported as inactive: -5.13%.
For `COc1ccc(NC(=O)N2CC[C@@]3(CCCN(C(C)=O)C3)C2)cc1`, the “activity change, negative = inhibition” value was inactive: 3.63%.
For `COc1ccc(OC)c(C(c2nnnn2C2CCCC2)N2CCc3ccccc3C2)c1` (stereo not given), the activity change, negative = inhibition was inconclusive: -14.7%.
In the case of `COc1ccc(S(=O)(=O)N2CCCCC2)cc1Br`, the activity change, negative = inhibition is reported as inconclusive: -0.448%.
In the case of `Cc1ccc(Cn2c(SCC(=O)NCc3ccco3)nc3ccsc3c2=O)cc1`, the Potency is reported as inconclusive: 3.98 µM [rising, single point].
For `COc1cc(C(=O)OC(C)CN2CCOCC2)cc(OC)c1OC` (stereo not given), the Potency was inconclusive: 12.6 µM [rising, single point].
For `CSCC[C@H](NC(=O)C1CCN(S(=O)(=O)c2ccc(C)cc2)CC1)C(=O)NCc1ccco1`, the activity change, negative = inhibition was inconclusive: -8%.
In the case of `COc1ccc(NC(=O)N2CC[C@@]3(CCCN(S(C)(=O)=O)C3)C2)cc1`, the “activity change, negative = inhibition” value is reported as inactive: 1.34%.
In the case of `Cc1ccc2[nH]c(-c3cccc(N)c3)cc2c1`, the activity change, negative = inhibition is reported as inconclusive: 16.7%.
In the case of `COc1cccc(-c2nc(NCc3ccccc3OC)c3ccccc3n2)c1`, the “activity change, negative = inhibition” value is reported as inactive: -13.3%.
For `COc1cccc(Cn2c(=O)c(-c3cc(F)cc(F)c3)nc3cnc(N4CCOCC4)nc32)c1`, the Potency was inconclusive: 3.98 µM [rising, partial curve].
In the case of `Cc1nc2ccccc2nc1N1CCCC1`, the Potency is reported as inconclusive: 3.16 µM [rising, partial curve].
In the case of `COCc1cc(C)nc(N2CCN(c3ccccc3)CC2)c1C#N`, the activity change, negative = inhibition is reported as inconclusive: 26.2%.
For `Cc1nc(SCC(=O)N2CCN(C(=O)c3ccco3)CC2)c2c(C)c(C)sc2n1`, the Potency was active: 2 µM.
For `COc1cc(OC)c2c(C)c(Cl)c(=O)oc2c1`, the Potency was inconclusive: 10 µM [rising, partial curve].
For `[Cu].[NH-][C@H](CC(=O)O)C(=O)O.[NH-][C@H](CC(=O)O)C(=O)O`, the activity change, negative = inhibition was inactive: 7.14% [at 7.6 µM].
For `O=C(Nc1ccc(S(=O)(=O)NC2CCCCC2)cc1)c1ccc(Br)o1`, the Potency was inconclusive: 12.6 µM [rising, single point].
In the case of `CCOC(=O)C1CCN(C(=O)c2ccc(Cl)c(NC3=NC4CS(=O)(=O)CC4S3)c2)CC1` (stereo not given), the “activity change, negative = inhibition” value is reported as inactive: -4.47%.
In the case of `CC(=O)N1CCc2cc(C(=O)CN3CCN(C(=O)c4ccco4)CC3)ccc21`, the Potency is reported as inconclusive: 12.6 µM [falling, single point].
For `O=C(CSc1nnc(Cn2nnc3ccccc32)o1)N(Cc1ccc(F)cc1)c1ccccc1`, the “activity change, negative = inhibition” value was inactive: 2.83%.
For `CCNc1nc(NCC)nc(-n2nc(C)cc2C)n1`, the Potency was inconclusive: 15.8 µM [rising, partial curve].
For `CC1CCN(c2nc(-c3ccccc3)c(C#N)c(=O)[nH]2)CC1`, the activity change, negative = inhibition was inconclusive: -6.22%.
For `CCCCCn1c(=O)c(-c2nc3ccccc3c(=O)[nH]2)c(O)c2ccccc21`, the “activity change, negative = inhibition” value was inactive: -5.58%.
For `COc1ccc(CNC2CCCCC2)cc1`, the activity change, negative = inhibition was inconclusive: 20.8%.
In the case of `Cc1ccc(-c2nc3cnccn3c2Nc2ccc3c(c2)OCO3)o1`, the Potency is reported as inconclusive: 10 µM [rising, partial curve].
For `O=C(Nc1ccc2ccccc2c1)[C@@H]1C[C@H]1[C@@H](NP(=O)(c1ccccc1)c1ccccc1)c1ccccc1`, the Potency was inconclusive: 2.51 µM [falling, full curve, poor fit].
With `CCOC(=O)c1[nH]c2ccc(F)cc2c1NC(=O)CN1CCc2cc(OC)c(OC)cc2C1` the Potency was inconclusive: 5.01 µM [rising, partial curve].
In the case of `Cc1cc(C(=O)NCc2cc(C)n(C)n2)sc1-c1ccccc1`, the “activity change, negative = inhibition” value is reported as inactive: 16.8%.
With `Cc1nn(Cc2ccc(F)cc2)c(C)c1NC(=O)c1noc2c1CCCCC2` the activity change, negative = inhibition was inconclusive: -10.9%.
In the case of `CCS(=O)(=O)N1CCC(C(=O)NCc2cccnc2)CC1`, the activity change, negative = inhibition is reported as inconclusive: -17%.
In the case of `CC1CCCN(C(=O)CSCC(=O)N=c2sc3ccccc3n2C)C1` (stereo not given), the Potency is reported as inconclusive: 0.631 µM [rising, full curve, poor fit].
With `COc1nc(N)nc2c1ncn2[C@@H]1C[C@H](O)[C@@H](CO)O1` the activity change, negative = inhibition was inactive: 9.72% [at 7.6 µM].
For `CCCOc1ccccc1C1CC(=O)Nc2cc3c(cc21)OCO3` (stereo not given), the Potency was active: 10 µM.
With `COCCNc1nc(-c2c(C)noc2C)nc2ccccc12` the Potency was inconclusive: 12.6 µM [rising, partial curve].
For `NC(=O)COC(=O)c1cc(S(=O)(=O)N2CCOCC2)ccc1N1CCCCC1`, the “activity change, negative = inhibition” value was inactive: -6.52%.
For `O=c1c2ccccc2nc2c3ccccc3c3nncn3n12`, the Potency was inconclusive: 12.6 µM [rising, single point].
For `CN(C)C(=O)c1ccc(-c2nc(Nc3ccc(F)cc3)c3ccccc3n2)cc1`, the Potency was active: 3.98 µM.
For `COc1ccc(-c2nc3ccccc3c(=O)n2CCN2CCOCC2)cc1`, the “activity change, negative = inhibition” value was inactive: 3.72%.
With `CN(C)P(=NC(=O)COc1ccc(Cl)cc1Cl)(N(C)C)N(C)C` the Potency was inconclusive: 5.01 µM [falling, single point].
For `COC(=O)C(C#N)c1nc2ccccc2nc1N1CCCC1` (stereo not given), the Potency was active: 10 µM.
In the case of `Cc1ccc(-c2csc3nnc(SCC(=O)Nc4cccc(C)n4)n23)cc1`, the Potency is reported as inconclusive: 10 µM [rising, single point].
Potency is read from the fitted curve at half-maximal effect; tags tell the direction and shape of the fitted curve.
